Source: PubChem BioAssay AID602310 (National Center for Advancing Translational Sciences (NCATS), 2012)
Among all 410,000 compounds or so, about 310 (0.076%) were called active. The inconclusive results got no clear call from the source; some entries with a clear call stand among them for comparison. The call rests on the fitted dose curve; in most records, active means well fitted curve in the direction sought with a large enough effect; inconclusive means small, poorly fitted or top-dose-only effect; inactive means flat fitted curve, though single readings scatter. Potencies of inconclusive entries are doubtful fits and often do not repeat.

The compounds below were run against DNA dC->dU-editing enzyme APOBEC-3G (Homo sapiens) (UniProt Q9HC16) (assay: qHTS for Inhibitors of Vif-A3G Interactions: qHTS). Settings: HeLa A3G-eYFP + Vif (tagged APOBEC3G with the HIV-1 protein that degrades it), YFP fluorescence, overnight; series mostly up to 46.1 µM; activity, negative = active: at the top concentration.
In short: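 HeLa cells stably expressing Vif and C-terminally eYFP-tagged A3G, seeded overnight at 37 deg C, then exposed to compound by pintool overnight at 37 deg C. Rise in yellow fluorescence (Ex 488/Em 500-530, Acumen) marks blocked Vif-driven A3G degradation.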
Further: nearly all actives have a fitted effect of over 60% in size.
On the % scale 0 is the no-effect control and ±100 the full control effect; potency means the concentration at half of the fitted maximal effect; tags describe the fitted curve by direction and shape.
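Wherever activity, negative = active is given: hits raise eYFP signal because A3G escapes Vif-driven loss.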

Chain of UniProt Q9HC16 (Q9HC16 whole entry, looked up): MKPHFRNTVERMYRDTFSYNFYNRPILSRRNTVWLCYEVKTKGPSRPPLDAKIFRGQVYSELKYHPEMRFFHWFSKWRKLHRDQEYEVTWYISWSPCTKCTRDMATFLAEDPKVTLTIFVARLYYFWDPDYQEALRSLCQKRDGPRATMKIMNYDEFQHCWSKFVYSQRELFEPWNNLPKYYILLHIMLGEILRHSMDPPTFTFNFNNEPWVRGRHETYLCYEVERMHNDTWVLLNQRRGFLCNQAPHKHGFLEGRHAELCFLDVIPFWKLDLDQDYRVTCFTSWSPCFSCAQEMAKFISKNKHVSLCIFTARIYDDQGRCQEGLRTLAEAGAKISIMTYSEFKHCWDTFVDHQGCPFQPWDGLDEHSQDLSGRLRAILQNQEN

Row | Compound | activity, negative = active | Potency
1 | COc1ccc(Cl)cc1NC(=O)NCCn1c(=O)oc2ccc(C)cc21 | inactive: 6.33% | –
2 | CCOC(=O)c1c(C)oc2ccc(NS(=O)(=O)c3cccs3)cc12 | – | inconclusive: 35.5 µM [inhibitor, single point]
3 | O=C(Nc1ccc(Cl)cc1)Nc1ccccc1Sc1ncc([N+](=O)[O-])s1 | – | inconclusive: 31.6 µM [inhibitor, single point]
4 | CC1(C)CC(N2CCCC2)=CC(=[N+]2CCCCCC2)C1 | inactive: 10.1% | –
5 | COc1ccccc1NC(=O)CSc1nc(O)c(C/C=C/c2ccccc2)c(=O)[nH]1 | – | inconclusive: 28.2 µM [inhibitor, single point]
6 | Cc1cc(C)nc(Sc2nc(Nc3ccccc3)nc(Sc3nc(C)cc(C)n3)n2)n1 | – | inconclusive: 17.8 µM [inhibitor, single point]
7 | Cc1cc(N2CCN(C)CC2)nc2ccc(NC(=O)c3ccc(C(C)(C)C)cc3)cc12 | – | inconclusive: 35.5 µM [inhibitor, single point]
8 | C(=C\c1ccco1)/c1ccc2ccccc2n1 | – | inconclusive: 17.8 µM [inhibitor, single point]
9 | N#CC1=C(N)Oc2cc(O)c(C=Nc3ccccc3)cc2C1c1ccccc1 (centres undefined) | – | inconclusive: 2.82 µM [inhibitor, single point]
10 | COc1cc(/C=C/C(=O)c2ccc3c(c2)OCCO3)cc(OC)c1OC | – | inconclusive: 12.6 µM [inhibitor, partial curve, poor fit]
11 | O=C(O)c1ccc(Cn2cnc3cccnc32)cc1 | – | inconclusive: 12.6 µM [inhibitor, single point]
12 | C=CCN1C=CC(=C/C=C(/C#N)C(=O)OCC)C=C1 | – | inconclusive: 10 µM [inhibitor, partial curve, poor fit]
13 | COc1ccc(-c2ccc(C3C4C=CCCC4(C)C(=O)N3Cc3ccccc3)c(F)c2)cc1 (centres undefined) | inactive: 1.76% | –
14 | COc1ccc(S(=O)(=O)N2CCc3ccccc32)cc1C(=O)OCc1c(C)noc1C | inactive: 1.13% | –
15 | COc1cc(C2C3=C(CCCC3=O)Nc3ccc4ncccc4c32)ccc1O (centres undefined) | – | inconclusive: 3.55 µM [inhibitor, partial curve]
16 | COc1cc(/C=C(\C#N)c2nc3ccccc3s2)ccc1OCC(=O)Nc1ccccc1 | – | active: 10 µM
17 | CCCCCC(=O)OC(CN1CCCCCC1)CN1CCCC1=O (centres undefined) | – | inconclusive: 1.41 µM [inhibitor, full curve, poor fit]
18 | CCOC(=O)c1cccc(NC(=O)N2CC=C(c3c[nH]c4ccccc34)CC2)c1 | – | inconclusive: 20 µM [inhibitor, single point]
19 | Cc1cc(C)n(-c2nc(C)c(C)c(=O)n2CC(=O)Nc2cccc([N+](=O)[O-])c2)n1 | inactive: 4.91% | –
